Laboratory results reported in ChEMBL document CHEMBL4888484, “Replenishing the malaria drug discovery pipeline: Screening and hit evaluation of the MMV Hit Generation Library 1 (HGL1) against asexual blood stage Plasmodium falciparum ,using a nano luciferase reporter read-out” (2022).
Screen size: about 150,000 compounds; about 540 (0.36%) showed an effect of 50% or more. The list shows a part of the results.

tested on: Plasmodium falciparum; experiment: Primary screen in NF54 nanoGlo assay, in single point, at 2uM, 72h; a lower Z score goes with more inhibition; assay type: functional, Erythrocyte; details: timepoint 72 hour

Row | Compound | % Inhibition [%] | Z score
1 | O=C(c1nccc2ccccc12)N1CC[C@H](Oc2ncccc2Br)C1 | -2 | 0.46
2 | Cc1nn(C)c(C)c1CCN(C)c1ncc2c(=O)n(C3CCCC3)c(=O)[nH]c2n1 | 5 | -0.78
3 | Cc1nc2cc(OCc3cc(C(=O)N(C)C4CCOCC4)no3)ccc2s1 | -11 | 1.2
4 | C[C@@H](NC1CCN(CC(F)F)CC1)c1cccc(O)c1 | -1 | 0.1
5 | Cc1ccccc1-c1onc(C)c1C(=O)N1CCC(Cc2ccccc2)CC1 | 1 | -0.11
6 | CC1(C)C[C@H](Nc2cccc(N3CCS(=O)(=O)CC3)c2)CO1 | -11 | 1.42
7 | CC1=NS(=O)(=O)c2cc(S(=O)(=O)CC(=O)Nc3cc(Cl)ccc3C)ccc2N1 | -2 | 0.33
8 | CN1CCC(N2CCC(CN(Cc3ccncc3)Cc3c(F)cccc3Cl)CC2)CC1 | 98 | -9.12
9 | Cc1noc(C)c1CCc1nc(COc2cccc(Cl)c2)n[nH]1 | -7 | 1.45
10 | C[C@H]1C[C@@H](C(=O)N2CC[C@H]3CCCC[C@H]32)CCN1C | -10 | 1.93
11 | O=c1[nH]nc(-c2ccc(Cl)cc2)c2cn(-c3ccc(Cl)cc3)nc12 | -14 | 1.65
12 | CCOC(=O)Cc1csc(NC(=O)COc2cc(C)on2)n1 | -19 | 3.58
13 | COCCOc1nc(-c2ccco2)n(-c2cccc(NC(=O)c3ccccc3F)c2)n1 | 13 | -1.84
14 | COc1ccc(-c2ccc(N3CCN(C(=O)CN(Cc4ccc5c(c4)OCO5)C(=O)c4ccc5c(c4)OCO5)CC3)nn2)c(OC)c1 | -1 | 0.2
15 | O=C(Nc1ccc(S(=O)(=O)Nc2nccs2)cc1)C1=NN(c2ccccc2)C(=O)CC1 | 22 | -3.87
16 | CC1(C(=O)NCCCc2cnoc2)CC2CCC1C2 (stereo unspecified) | -7 | 1.32
17 | O=C1N[C@H]2CC[C@@H]1CN(Cc1cc3ccccc3o1)C2 | -15 | 1.9
18 | O=S(=O)(N[C@H](c1cccs1)C1(CO)CCC1)N1CCCC1 | 2 | -0.37
19 | COc1ccccc1OC1(C(=O)O)CCN(c2ncnc3ccsc23)CC1 | -4 | 0.48
20 | O=C(NCC1(CF)CCOCC1)c1cnnc2ccccc12 | 2 | -0.2
21 | COc1cccc(CC2=NO[C@H](C(=O)N(Cc3ccccc3)CC3CC3)C2)c1 | 0 | -0.05

Row | Compound | % Inhibition [%] | Z score
22 | COc1ccc(-c2cc(C(=O)N3CCN(c4ccccc4OC)CC3)sn2)cc1 | 11 | -1.37
23 | NC(=O)Cc1n[nH]c(-c2csc3c2CCCC3)n1 | -16 | 2.11
24 | O=C(NC1CCCCC1)c1cc2c(F)cccc2s1 | 9 | -1.03
25 | Cc1n[nH]c(-c2cc(S(=O)(=O)N3CCc4ccccc4C3)c(C)s2)c1C | -9 | 1.04
26 | COC(=O)N1CCC(c2nnc(Cn3cccn3)n2C)CC1 | -8 | 0.74
27 | CN(C)CCC1CCN(S(=O)(=O)C2Cc3ccccc3C2)CC1 | -14 | 2.19
28 | Cc1ccsc1[C@H]1CCN(Cc2c(C)nn(C(C)C)c2C)C[C@@H]1O | -6 | 0.69
29 | NCCOc1cccc(CC(=O)N2CCCCC[C@H]2c2cccc(F)c2)c1 | -6 | 0.84
30 | Cc1cc(-c2nc(CN(C(=O)c3ccccc3)C3CC3)no2)n[nH]1 | -4 | 0.49
31 | Cc1ccc(C(=O)N2CCC(N3C(=O)CC[C@H]3C(=O)NCc3cccnc3)CC2)s1 | -20 | 2.12
32 | COC(=O)C1=C(C(=O)OC)SC(=C2C(=S)C(C)(C)N(C(=O)CN3C(=O)CCC3=O)c3c(OC)cccc32)S1 | -8 | 0.93
33 | COc1c(Cl)cc(NC(=O)NCC(=O)N(C)C)cc1Cl | -6 | 0.97
34 | FC(F)(F)C1C2CCC(O2)C1c1nc(Cc2cncs2)no1 (stereo unspecified) | -11 | 1.45
35 | COc1cc(=O)c(C(=O)N2CCCCCC2)nn1-c1ccc(C)cc1 | 27 | -3.92
36 | C[C@@H]1CN(C(=O)CCCc2ccc(O)c(F)c2)CCN(C2CCC2)C1 | -2 | 0.28
37 | CCc1ncnc(NC2CCCCC2C(N)=O)c1F (stereo unspecified) | 5 | -0.8
38 | O=S(=O)(c1ccccc1Cl)N1CCC2(CC[C@@H]2O)CC1 | 0 | 0.04
39 | O=C(NCc1ccon1)c1cc(=O)[nH]c2cc(F)ccc12 | -2 | 0.23
40 | CCOC1(c2nc(-c3ccc4cncn4c3)no2)CCCC1 | -2 | 0.28
41 | CC(C)(C)OC(=O)N1[C@@H](CN2CCCC3(C2)OCCO3)COC1(C)C | -12 | 1.18
42 | Cc1cnc(C(=O)Nc2ccccc2-c2nc3ccccc3s2)cn1 | 2 | -0.23

Row | Compound | % Inhibition [%] | Z score
43 | COCC(=O)N[C@@H]1CC[C@H]2CCOc3ccccc3C(=O)N3CCN(Cc4ccc(Cl)c(F)c4)C[C@H]3C(=O)NC[C@H]1O2 | -1 | 0.19
44 | Cc1ccc(S(=O)(=O)N2CC(=O)N(c3ccccc3C)[C@](C)(C(=O)NC3CCCC3)C2)cc1 | -17 | 2.09
45 | CC(C)COC(=O)N1CCC2(CCC(=O)N(CCc3ccccc3)C2)CC1 | -6 | 1.04
46 | c1ccc2oc(N3CCC(NCCc4cn[nH]c4)CC3)nc2c1 | -4 | 0.46
47 | COC1COCCC1CC(=O)Nc1ccc2c(c1)CCC2 (stereo unspecified) | 0 | 0
48 | COCC(=O)n1nc(Nc2ccccc2OC)cc1Nc1ccccc1OC | 7 | -1.06
49 | O=C(c1cc(O)nc2ccccc12)N1CCC[C@H](n2cccn2)C1 | -17 | 2.71
50 | O=C(O)CCc1ccc(-c2ccc(F)cc2)n1NC(=O)c1ccccc1Cl | 29 | -3.33
51 | CCCn1nc(C)c(Br)c1C | -5 | 0.5
52 | COc1ccc(C(=O)NCc2ccc3c(c2)CCN3C(=O)C(C)C)cc1 | -12 | 1.09
53 | CNS(=O)(=O)c1cc(Br)cnc1N | -12 | 1.78
54 | COCC1(C)CCN(C(=O)[C@H]2C[C@@H]2c2ccc(OC)cc2)CC1 | -6 | 1.25
55 | CCn1ccnc1CN1CCCn2nc(CNC(=O)N(C)C)cc2C1 | -2 | 0.31
56 | N#CCN1CCN(C(=O)CC2=CCCCC2)CC1 | -11 | 1.44
57 | CCN1CCC(N(C)C(=O)CCc2ccc(O)c(Cl)c2)C(C)C1 (stereo unspecified) | 6 | -0.54
58 | O=C1CC[C@@]2(CCCN(C(=O)c3ccccn3)C2)CN1CCc1c[nH]cn1 | -4 | 0.75
59 | Cc1cc(C)c(C#N)c(N2CCC[C@H](N3CCOCC3)C2)n1 | -15 | 1.88
60 | O=C(NC1CC1)[C@@H]1COC2(CCN(C(=O)c3ccc4c(c3)OCO4)CC2)N1C(=O)c1ccccc1 | -11 | 1.58
61 | Cc1cc(C)nc(NCCC(=O)NCC2CCOCC2)n1 | -8 | 0.8
62 | COc1ccc(C2c3cc(Br)cc(C(=O)O)c3NC(c3ccc(Cl)c(Cl)c3)C2C)cc1OC (stereo unspecified) | 34 | -3.84
63 | O=C(Nc1cccc(F)c1)N1CCCCC[C@H]1c1ccccc1Cl | 7 | -0.93

Row | Compound | % Inhibition [%] | Z score
64 | Cc1cc(C(=O)NC[C@H]2CCCN(c3nccc4cccnc34)C2)ccc1Cl | -7 | 1.09
65 | COc1ccc(Cc2n[nH]c(=O)n2-c2c(C)noc2C)cc1 | 5 | -0.66
66 | COc1cc(=O)[nH]cc1C(=O)N[C@H]1CCCOC1 | -9 | 1.65
67 | CN1[C@@H]2CC[C@H]1CN(Cc1ccccc1OCCCCn1ccnc1)CC2 | -6 | 0.69
68 | COc1ccc(N2C(=O)c3ccccc3N[C@@H]2c2cccc3cccnc23)c(OC)c1 | -5 | 0.79
69 | C[C@@]1(C(=O)NCc2ccccc2)Cn2nc(-c3ccccc3)cc2C(=O)N1CCc1ccc(Cl)cc1 | -2 | 0.25
70 | CCn1ncc(Cl)c1C(=O)N1CCC[C@H](C(C)(C)C(=O)O)C1 | -3 | 0.52
71 | O=c1ncccn1Cc1nc(C2CCCC2)nn1[C@H]1CCS(=O)(=O)C1 | -15 | 2.9
72 | COc1cc(-c2[nH]cnc2-c2ccccc2)cc2c1OCO2 | -6 | 0.77
73 | Cc1cc(CN(C)C[C@H]2CCCOC2)ccn1 | -1 | 0.21
74 | CC(C)(CC(=O)O)NC(=O)Cc1ccc(Cl)cc1Cl | -11 | 0.92
75 | CC(=O)NC1CCN(CC2=CCCN([C@@H]3C=CCCC3)C2)CC1 | 6 | -0.87
76 | O=C(Cc1c(F)cccc1Cl)N1CCCCCCC1 | -6 | 0.64
77 | C[C@H](NC(N)=O)C(=O)NCCc1ccccc1Br | 4 | -0.47
78 | O=C(c1ccc2noc(-c3ccccc3)c2c1)N1CC[C@H](c2ncon2)C1 | -10 | 1.71
79 | Cc1cccc(C(C)C)c1NCc1csc(CS(C)(=O)=O)n1 | -1 | 0.07
80 | CCN(CC(=O)OC)Cc1c(CO)cnc(C)c1O | -7 | 0.92
81 | CCCCNC(=O)NC[C@H]1CCCS1(=O)=O | 0 | -0.03
82 | Cn1nccc1[C@@H]1CN(C(=O)NCC(C)(C)c2cccnc2)CCO1 | 7 | -1.32
83 | Oc1cc(CCc2nc([C@H]3CCOC3)nn2-c2cccnc2)on1 | -12 | 1.42
